The list shows a part of the results.
Columns and labels:
Experiment in all cases: glycan array binding signal (z-score within array); higher = stronger binding
Conditions in all cases: glycan notation: IUPAC condensed, linker removed
[1] = target: Fuc(a1-2)[GalNAc(b1-3)]Gal
Method in brief: (§1)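 Negative Z-scores can be read as non-binding. The Z-score is calculated within each array and then averaged across arrays of one protein sequence at different concentrations or buffers and across linkers. Arrays, 3228 in all, were curated from the Consortium for Functional Glycomics database and kept only where the protein sequence was available.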

Fuc(a1-3)GlcNAc = target: Fuc(a1-3)GlcNAc
Method in brief: as §1

[2] = target: Fuc(a1-3)[Gal(b1-4)]Glc6S
Method in brief: as §1

[3] = target: Fuc(a1-3)[Gal(b1-4)]GlcNAc
Method in brief: as §1

[4] = target: Fuc(a1-3)[Gal(b1-4)]GlcNAc(b1-2)Man
Method in brief: as §1

[5] = target: Fuc(a1-3)[Gal(b1-4)]GlcNAc(b1-2)Man(a1-3)[Fuc(a1-3)[Gal(b1-4)]GlcNAc(b1-2)Man(a1-6)]Man(b1-4)GlcNAc(b1-4)GlcNAc
Method in brief: as §1

[6] = target: Fuc(a1-3)[Gal(b1-4)]GlcNAc(b1-2)Man(a1-3)[Fuc(a1-3)[Gal(b1-4)]GlcNAc(b1-2)Man(a1-6)]Man(b1-4)GlcNAc(b1-4)[Fuc(a1-6)]GlcNAc
Method in brief: as §1

[7] = target: Fuc(a1-3)[Gal(b1-4)]GlcNAc(b1-3)Gal(b1-3)[Fuc(a1-4)]GlcNAc
Method in brief: as §1

[8] = target: Fuc(a1-3)[Gal(b1-4)]GlcNAc(b1-3)Gal(b1-4)[Fuc(a1-3)]GlcNAc
Method in brief: as §1

[9] = target: Fuc(a1-3)[Gal(b1-4)]GlcNAc(b1-3)Gal(b1-4)[Fuc(a1-3)]GlcNAc(b1-3)Gal(b1-4)[Fuc(a1-3)]GlcNAc
Method in brief: as §1

[10] = target: Fuc(a1-3)[Gal(b1-4)]GlcNAc(b1-3)GalNAc
Method in brief: as §1

[11] = target: Fuc(a1-3)[Gal(b1-4)]GlcNAc(b1-6)GalNAc
Method in brief: as §1

[12] = target: Fuc(a1-3)[Gal(b1-4)]GlcNAc(b1-6)[Gal(b1-3)GlcNAc(b1-3)]Gal(b1-4)Glc
Method in brief: as §1

[13] = target: Fuc(a1-3)[Gal(b1-4)]GlcNAc6S
Method in brief: as §1

[14] = target: Fuc(a1-3)[Gal3S(b1-4)]Glc
Method in brief: as §1

[15] = target: Fuc(a1-3)[Gal3S(b1-4)]GlcNAc
Method in brief: as §1

[16] = target: Fuc(a1-3)[Gal3S(b1-4)]GlcNAc6S
Method in brief: as §1

[17] = target: Fuc(a1-3)[GalNAc(b1-4)]GlcNAc
Method in brief: as §1

[18] = target: Fuc(a1-3)[GalNAc(b1-4)]GlcNAc6S
Method in brief: as §1

Fuc(a1-4)GlcNAc = target: Fuc(a1-4)GlcNAc
Method in brief: as §1

Fuc(b1-3)GlcNAc = target: Fuc(b1-3)GlcNAc
Method in brief: as §1

Gal(a1-2)Gal = target: Gal(a1-2)Gal
Method in brief: as §1

Gal(a1-3)Gal = target: Gal(a1-3)Gal
Method in brief: as §1

Gal(a1-3)Gal(b1-3)GlcNAc = target: Gal(a1-3)Gal(b1-3)GlcNAc
Method in brief: as §1

[19] = target: Gal(a1-3)Gal(b1-3)GlcNAc(b1-2)Man
Method in brief: as §1

[20] = target: Gal(a1-3)Gal(b1-3)GlcNAc(b1-2)Man(a1-3)[Gal(a1-3)Gal(b1-3)GlcNAc(b1-2)Man(a1-6)]Man(b1-4)GlcNAc(b1-4)GlcNAc
Method in brief: as §1

[21] = target: Gal(a1-3)Gal(b1-3)GlcNAc(b1-3)GalNAc
Method in brief: as §1

[22] = target: Gal(a1-3)Gal(b1-3)GlcNAc(b1-6)GalNAc
Method in brief: as §1

[23] = target: Gal(a1-3)Gal(b1-3)[Fuc(a1-4)]GlcNAc(b1-2)Man(a1-3)[Gal(a1-3)Gal(b1-3)[Fuc(a1-4)]GlcNAc(b1-2)Man(a1-6)]Man(b1-4)GlcNAc(b1-4)GlcNAc
Method in brief: as §1

Gal(a1-3)Gal(b1-4)Glc = target: Gal(a1-3)Gal(b1-4)Glc
Method in brief: as §1

Gal(a1-3)Gal(b1-4)GlcNAc = target: Gal(a1-3)Gal(b1-4)GlcNAc
Method in brief: as §1

[24] = target: Gal(a1-3)Gal(b1-4)GlcNAc(b1-2)Man
Method in brief: as §1

[25] = target: Gal(a1-3)Gal(b1-4)GlcNAc(b1-2)Man(a1-3)[Gal(a1-3)Gal(b1-4)GlcNAc(b1-2)Man(a1-6)]Man(b1-4)GlcNAc(b1-4)GlcNAc
Method in brief: as §1

[26] = target: Gal(a1-3)Gal(b1-4)GlcNAc(b1-3)GalNAc
Method in brief: as §1

[27] = target: Gal(a1-3)Gal(b1-4)GlcNAc(b1-6)GalNAc
Method in brief: as §1

[28] = target: Gal(a1-3)Gal(b1-4)[Fuc(a1-3)]GlcNAc
Method in brief: as §1

[29] = target: Gal(a1-3)Gal(b1-4)[Fuc(a1-3)]GlcNAc(b1-2)Man(a1-3)[Gal(a1-3)Gal(b1-4)[Fuc(a1-3)]GlcNAc(b1-2)Man(a1-6)]Man(b1-4)GlcNAc(b1-4)GlcNAc
Method in brief: as §1

B1: Epa6 (Candida glabrata), Q6DTM7_CANGB (protein)
chain: MGSSHHHHHHSSGLVPRGSHMKDDYSSSLSNNNLGWTDPTEFPLGCSPNVTTPKNGLSMELYSYDYLKSGSNPCWDAAYLDPNYPRTGYKSHRLLAKVENVAGNINFYYHAPMGCTSLFDTLPQAYNYRTPLTMTNFTMLLYGYFKPKVTGYHTFTISADDLLFVNFGAGNAFDCCKRESSADDFGNYQAYAVWGSQTAKDDLTVHLDAGLYYPIRIFFNNRDNDGALSLTLKTESDPNPVIDFSDYFYSFDDTKDGCPGLVSYDTS
glycan array binding signal (z-score) [1]: -0.337 | glycan array binding signal (z-score) (Fuc(a1-3)GlcNAc): -0.304 | glycan array binding signal (z-score) [2]: -0.259 | glycan array binding signal (z-score) [3]: -0.287 | glycan array binding signal (z-score) [4]: -0.247 | glycan array binding signal (z-score) [5]: -0.291 | glycan array binding signal (z-score) [6]: -0.206 | glycan array binding signal (z-score) [7]: -0.302 | glycan array binding signal (z-score) [8]: -0.271 | glycan array binding signal (z-score) [9]: -0.265 | glycan array binding signal (z-score) [10]: -0.194 | glycan array binding signal (z-score) [11]: -0.113 | glycan array binding signal (z-score) [12]: -0.178 | glycan array binding signal (z-score) [13]: -0.255 | glycan array binding signal (z-score) [14]: -0.267 | glycan array binding signal (z-score) [15]: -0.314 | glycan array binding signal (z-score) [16]: -0.263 | glycan array binding signal (z-score) [17]: -0.246 | glycan array binding signal (z-score) [18]: -0.315 | glycan array binding signal (z-score) (Fuc(a1-4)GlcNAc): -0.305 | glycan array binding signal (z-score) (Fuc(b1-3)GlcNAc): -0.331 | glycan array binding signal (z-score) (Gal(a1-2)Gal): -0.198 | glycan array binding signal (z-score) (Gal(a1-3)Gal): 1.37 | glycan array binding signal (z-score) (Gal(a1-3)Gal(b1-3)GlcNAc): 0.983 | glycan array binding signal (z-score) [19]: 2.08 | glycan array binding signal (z-score) [20]: 0.074 | glycan array binding signal (z-score) [21]: 0.907 | glycan array binding signal (z-score) [22]: 1.16 | glycan array binding signal (z-score) [23]: -0.234 | glycan array binding signal (z-score) (Gal(a1-3)Gal(b1-4)Glc): 0.895 | glycan array binding signal (z-score) (Gal(a1-3)Gal(b1-4)GlcNAc): 2.83 | glycan array binding signal (z-score) [24]: 1.11 | glycan array binding signal (z-score) [25]: 3.7 | glycan array binding signal (z-score) [26]: 1.39 | glycan array binding signal (z-score) [27]: 0.772 | glycan array binding signal (z-score) [28]: -0.08 | glycan array binding signal (z-score) [29]: -0.106

From the supplement of paper PMC8728848
